Data on 52 compounds can be found in ChEMBL document CHEMBL4888484, “Replenishing the malaria drug discovery pipeline: Screening and hit evaluation of the MMV Hit Generation Library 1 (HGL1) against asexual blood stage Plasmodium falciparum ,using a nano luciferase reporter read-out” (2022).

The structures appear in SMILES notation. About 540 (0.36%) of roughly 150,000 compounds showed an effect of 50% or more. Some of the results follow.

By % Inhibition is commonly meant the change of the read-out against control, counted positive when it falls.

For this test, the system named is Plasmodium falciparum. Nature of the test: Primary screen in NF54 nanoGlo assay, in single point, at 2uM, 72h; a lower Z score goes with more inhibition. It counts as functional, Erythrocyte. To be noted: timepoint 72 hour.
Regarding `CCc1coc(NC(=O)c2cc(F)ccc2F)n1`, the “% Inhibition” value came out at 1% and the Z score is recorded as -0.21.
`CCn1ccnc1C(=O)N1CCc2c(CN3CCCC3)cccc21`: the “% Inhibition” value is -7% and the Z score came to 0.89.
With `COc1nc(C)cc(C)c1CNCCC(=O)N1CCc2ccccc2C1`, the “% Inhibition” value is listed as -8% and the Z score was found to be 1.45.
The matching figures for `O=C(Cn1nc(N2CCCCCC2)c2ccccc2c1=O)N1CCN(c2ccc(F)cc2)CC1`: -7% and 0.98.
Regarding `COc1ccccc1C1CC1C(=O)N1CCN(CCO)CC1` (centres undefined), the “% Inhibition” value is reported as -12% and the Z score was 1.03.
`CC(C)CN1CCN(C(=O)c2cnn(-c3ccc(=O)[nH]n3)c2C(F)(F)F)CC1`: the “% Inhibition” value is given as -7% and the Z score is on record as 0.99.
Take `Cc1nn(C)c(C)c1OCc1ncc(-c2cccs2)o1`: the “% Inhibition” value is reported as -11% and the Z score is on record as 1.99.
Consider `CC(C)N(CC(=O)N1CCN(c2ccc(-c3ccc(Cl)cc3Cl)nn2)CC1)C(=O)c1ccccc1F`, for which the “% Inhibition” value is recorded as -9% and the Z score is on record as 1.05.
`CC(=O)c1ccc(CNC(=O)[C@H](O)c2ccccc2)nc1C`: the “% Inhibition” value was -17% and the Z score came out at 2.38.
The matching figures for `CCc1cc(N[C@H]2CCCN(CCO)C2=O)nc(C)n1`: -19% and 2.11.
The matching figures for `CO[C@H]1CN[C@@H](C(=O)N(Cc2ccccc2)C2CC2)C1`: 1% and -0.19.
Take `CN1C(=O)[C@@H](Cc2ccc(-c3cccc(C(F)(F)F)c3)o2)c2ccccc21`: the “% Inhibition” value is -12% and the Z score was 1.03.
For the compound `CCn1nc(C)c(CCC(=O)N[C@H]2CCCc3c2[nH]c2c(Cl)cccc32)c1C`, the “% Inhibition” value is -1% and the Z score is 0.19.
The matching figures for `CCN(Cc1ccoc1)C(=O)c1cc(Cl)c(O)c(OC)c1`: -6% and 1.05.
On to `COc1ccc([C@@]2(C)NC(=O)N(CC(=O)N3CCc4ccccc43)C2=O)cc1OC`, for which the “% Inhibition” value is on record as 1% and the Z score is given as -0.14.
As for `Cc1ccc2nc(C(Cl)(Cl)Cl)nc(N)c2c1`, the “% Inhibition” value is reported as -9% and the Z score came out at 1.23.
Take `CCc1ccc([C@@H](NC(=O)CCNC(C)=O)C(C)C)cc1`: the “% Inhibition” value is given as 0% and the Z score was -0.05.
With `Cc1ccc(NC(=O)Cn2nc3c(N4CCN(c5ccccc5C)CC4)nccn3c2=O)c(Cl)c1`, the “% Inhibition” value is listed as -18% and the Z score came out at 1.72.
Taken in the same sequence, the figures for `C[C@@H](O)CNC(=O)Nc1nc2n(c1C(=O)OC(C)(C)C)CCOC2` were 1% and -0.2.
`N#Cc1cnn2cc(CN[C@]3(CO)COc4ccccc4C3)cnc12`: the “% Inhibition” value is -14% and the Z score is listed as 1.37.
With `Cc1c(Cl)cccc1S(=O)(=O)N1CC(S(=O)(=O)Cc2ccco2)C1`, the “% Inhibition” value came out at 0% and the Z score turned out to be 0.05.
Take `CCOc1ccc([C@@H]2c3[nH]c4ccccc4c3CCN2Cc2cc[nH]n2)cc1`: the “% Inhibition” value is on record as -7% and the Z score was found to be 0.9.
On to `CC(C#N)CNCCC(C)c1ccccc1` (centres undefined), for which the “% Inhibition” value is reported as 40% and the Z score is reported as -4.06.
As for `COc1cccc(-c2ccc(N3CCCN(C(=O)CN(Cc4ccccc4)C(=O)c4ccc(Cl)cc4Cl)CC3)nn2)c1`, the “% Inhibition” value is -9% and the Z score amounted to 1.07.
`COc1cccc(C(=O)N(Cc2ccc(C)cc2)c2cccc(CC(=O)Nc3ccc(F)cc3)c2)c1`: the “% Inhibition” value was -4% and the Z score is given as 0.77.
For the compound `Cc1nccc(CNC(=O)C(C)(C)Oc2cccc(Cl)c2)n1`, the “% Inhibition” value is reported as -7% and the Z score came to 0.98.
`Cn1nc(C(=O)N2CCCc3cc(S(=O)(=O)N4CCCC4)ccc32)ccc1=O`: the “% Inhibition” value is -4% and the Z score was found to be 0.42.
Taken in the same sequence, the figures for `CCCCc1nc(C)cc(NCCNC(=O)Nc2cn(C)nn2)n1` were 2% and -0.3.
Take `CCc1c(C(=O)N2CCC[C@H]2c2ccc(C(N)=O)s2)[nH]c2ccccc12`: the “% Inhibition” value is listed as -10% and the Z score was 1.37.
`COc1ccc(OC)c(N(CC(=O)N[C@H](C)c2ccccc2)S(C)(=O)=O)c1`: the “% Inhibition” value turned out to be 6% and the Z score is -0.95.
Consider `O=C1CCCc2[nH]c(=O)c(C(=O)NCc3ccc(F)c(Cl)c3)cc21`, for which the “% Inhibition” value was -5% and the Z score came out at 0.77.
Taken in the same sequence, the figures for `Cc1cc(CNc2[nH]ncc2C(=O)N(C)C)cc(C)c1O` were -11% and 1.22.
In the case of `Cc1nn(C)c(Cl)c1CN1CCC[C@H]1C(=O)OCc1ccccc1`, the “% Inhibition” value was -10% and the Z score is 1.73.
As for `CC(=O)c1c(C)[nH]c(C(=O)N2c3ccncc3CC[C@@H]2CO)c1C`, the “% Inhibition” value is given as -15% and the Z score is 1.77.
With `O=C(CN1C(=O)COc2cc(Br)ccc21)Nc1cccc2ccccc12`, the “% Inhibition” value was found to be 32% and the Z score was -0.82.
Taken in the same sequence, the figures for `C[C@@H]1NC(C)(C)CC(C)(C)c2ccccc21` were -2% and 0.15.
The matching figures for `Cc1cc(N2CC[C@H](O)C2)n2nc(C)cc2n1`: -9% and 0.99.
On to `Cc1cc(=O)cc(C(=O)NCc2ccc3nonc3c2)[nH]1`, for which the “% Inhibition” value was -3% and the Z score is reported as 0.55.
Turning to `CS(=O)(=O)CCC(=O)N(CCO)Cc1cccs1`, the “% Inhibition” value was -4% and the Z score amounted to 0.68.
For `CCc1nccn1C[C@H](C)NCc1ccc2nsnc2c1`, the “% Inhibition” value turned out to be 3% and the Z score is recorded as -0.48.
With `NCCNc1nc(-c2ccc(Br)cc2)nnc1-c1ccccc1`, the “% Inhibition” value is recorded as -16% and the Z score is given as 1.89.
In the case of `Cn1c(CCNC(=O)C2(C)COC2)nc2cc(F)ccc21`, the “% Inhibition” value is recorded as 6% and the Z score was -1.35.
As to `O=C(CN1CCC2(CC1)C[C@@H]2C(=O)N1CCCCC1)Nc1nccs1`, the “% Inhibition” value is recorded as -14% and the Z score was 2.59.
Turning to `C[C@H]1Cc2ccccc2C(CCc2ccccc2)=N1`, the “% Inhibition” value was -4% and the Z score is 0.38.
In the case of `Cc1cc(C)c(C(=O)NC[C@@]2(c3cnn(C)c3)CCCO2)[nH]1`, the “% Inhibition” value is on record as -4% and the Z score is listed as 0.37.
As to `Cc1cc(NC(=O)N(C)CC2(CO)CC2)n(-c2cc(C)c3ccccc3n2)n1`, the “% Inhibition” value is -1% and the Z score was found to be 0.09.
For `Cc1c(NC(=O)CCn2nnnc2C)cnn1C`, the “% Inhibition” value is recorded as 1% and the Z score is recorded as -0.24.
For `Cc1cc(-c2ccc(C)c(S(=O)(=O)CCC(=O)NCc3ccc(Cl)cc3)c2)on1`, the “% Inhibition” value is listed as -2% and the Z score was found to be 0.27.
For the compound `CCn1cc(C#N)c(=O)n(CC(=O)N2CCN(S(=O)(=O)c3ccc4c(c3)CCCC4)CC2)c1=O`, the “% Inhibition” value was 6% and the Z score is -1.14.
Turning to `O=S(=O)(c1cccnc1)N1CCN(S(=O)(=O)c2cccs2)CC1`, the “% Inhibition” value is reported as 8% and the Z score is -1.06.
As for `CN1CCc2[nH]nc(C(=O)NC(c3cccs3)[C@H]3C[C@@H](O)C3)c2C1` (some centres undefined), the “% Inhibition” value was -3% and the Z score amounted to 0.48.
In the case of `CN1CCNC(=O)C[C@@H]2CN(C(=O)c3ccccc3)C[C@@H]2n2cc(nn2)Cn2cccc(c2=O)C1=O`, the “% Inhibition” value is reported as -10% and the Z score was determined as 1.98.
